# Laboratory results published in PubChem BioAssay AID624172 (National Center for Advancing Translational Sciences (NCATS), 2012).
# Out of some 380,000 compounds screened, about 25 (0.007%) were called active. This list was built around the results that the source calls inconclusive (neither active nor inactive); the mix of calls is not that of the screen. Calls follow the shape of the dose curve; as a rule, active = well fitted activation curve with a large enough effect; inconclusive = small, poorly fitted or top-dose-only effect; inactive = no such curve, though single readings can be large or run the other way. Potencies of inconclusive entries are left out as doubtful fits.
# Molecular target: Glucagon-like peptide 1 receptor (Homo sapiens) (UniProt P43220)
# Sequence of UniProt P43220 (P43220 whole entry, looked up): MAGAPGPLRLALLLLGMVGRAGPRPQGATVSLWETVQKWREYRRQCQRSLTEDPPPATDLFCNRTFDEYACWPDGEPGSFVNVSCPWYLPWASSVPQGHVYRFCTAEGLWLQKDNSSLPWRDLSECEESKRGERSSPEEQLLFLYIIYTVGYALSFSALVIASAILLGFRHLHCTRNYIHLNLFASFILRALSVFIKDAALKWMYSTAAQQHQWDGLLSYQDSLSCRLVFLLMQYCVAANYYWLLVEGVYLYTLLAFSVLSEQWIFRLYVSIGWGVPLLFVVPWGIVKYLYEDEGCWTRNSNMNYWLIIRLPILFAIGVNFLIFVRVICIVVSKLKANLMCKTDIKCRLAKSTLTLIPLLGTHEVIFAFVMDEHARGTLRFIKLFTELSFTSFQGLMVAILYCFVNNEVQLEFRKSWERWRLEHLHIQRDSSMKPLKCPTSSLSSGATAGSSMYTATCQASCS
# Test: qHTS of GLP-1 Receptor Agonists; as to activation: % of control where 0% means no effect
# Conditions: HEK293 GLP-1R CRE-luciferase, luminescence, 4-6 h, cells express a hypersensitive GLP-1R form; activation: at 45.6 µM (top of the series) unless noted
# Potency is read from the fitted curve at half-maximal effect; tags tell the direction and shape of the fitted curve.
SMILES,Potency,activation
COc1ccc(/C=N/NC(=O)CCCOc2ccc(Cl)cc2Cl)cc1[N+](=O)[O-],"inconclusive [activator, single point]",–
Cc1ccnc(SCC(=O)c2ccc([N+](=O)[O-])cc2)n1,inactive,–
Cc1nccn1CC1CCc2c(c3ccccc3n2C)C1=O (configuration not stated),"inconclusive [activator, partial curve, poor fit]",–
N#Cc1cc([N+](=O)[O-])cnc1Nc1ccccc1,active: 8.91 µM,–
COc1ccc([C@H]2CC(=O)C=C(c3ccc4ncccc4c3)C2)cc1OC,"inconclusive [activator, partial curve, poor fit]",–
OC(CNCCc1ccccc1)c1ccccc1 (configuration not stated),inactive,–
COc1cccc(OC)c1C(=O)Nc1ccc(C(=O)c2ccncc2)cc1,–,inconclusive: 40.5% [activator]
COc1ccc(O)c(C(=O)c2cnn(-c3ccccn3)c2)c1,–,inconclusive: 64.2% [activator]
CC1=CC(C)(C)N=C(Nc2ccc(C)cc2)S1,inactive,–
COc1cccc(C(=O)NCC2(c3ccc(OC)c(OC)c3)CCCC2)c1,"inconclusive [activator, partial curve, poor fit]",–
COc1cccc(C(=O)Nc2ccc3ccccc3c2)c1,"inconclusive [activator, full curve, poor fit]",–
COCc1cccc(-c2csc(C(C)(O)c3cccc(F)c3)n2)c1 (configuration not stated),"inconclusive [activator, single point]",–
CCOC(=O)c1[nH]c(C)c(C(=O)c2cc(F)ccc2F)c1C,"inconclusive [activator, single point]",–
Cc1oc(-c2ccc(C(=O)NCc3ccccc3Cl)cc2)nc1CN1CCc2ccccc21,"inconclusive [activator, partial curve]",–
COc1ccc(-c2noc(C3CCCN(C(=O)c4ccccc4OC)C3)n2)cc1OC (configuration not stated),"inconclusive [activator, single point]",–
Cc1ccc(S(=O)(=O)n2c3ccc(Cl)cc3c3nc(C)sc32)cc1,"inconclusive [activator, partial curve]",–
CC(C)c1ccc2oc(=O)cc(CN3CCCCC3)c2c1,"inconclusive [activator, partial curve, poor fit]",–
CCN(c1ccccc1)c1ncnc2c1cnn2-c1ccccc1,"inconclusive [activator, partial curve]",–
Cc1cc(CCNC=O)c(C)c2c1oc1ccccc12,"inconclusive [activator, single point]",–
NC(Cc1ccccc1)c1csc(Nc2ccc(C(=O)c3ccccc3)cc2)n1 (configuration not stated),inactive,–
Cc1nc(C(F)(F)F)ccc1C(=O)N1CCC1(C)C(=O)Nc1ccc2c(c1)OCO2 (configuration not stated),inactive,–
COc1ccc([C@H]2CC(=O)C=C(c3ccc(OC)cc3OC)C2)cc1,"inconclusive [activator, single point]",–
N#C/C(=C\c1ccc(N2CCOCC2)o1)C(=O)NCCc1ccccc1,"inconclusive [activator, single point]",–
COc1ccc(Nc2nc(N)nc(CSC(=S)N3CCN(C)CC3)n2)cc1,"inconclusive [activator, partial curve, poor fit]",–
Nc1nc(Nc2cccc(C(F)(F)F)c2)nc(C(F)(F)F)n1,"inconclusive [activator, partial curve, poor fit]",–
O=C(CN(CC1CCCO1)S(=O)(=O)c1ccc(S(=O)(=O)NCC2CCCO2)cc1)Nc1ccccc1 (configuration not stated),"inconclusive [activator, single point]",–
OC(c1cc(-c2cccc(Cl)c2)nc2ccccc12)C1CCCCN1 (configuration not stated),inactive,–
